Experimental data from PubChem BioAssay AID652106 (National Center for Advancing Translational Sciences (NCATS), 2013).
The whole screen tested about 370,000 compounds, of which about 500 (0.14%) were called active. Inconclusive means that the source gave no clear call. Such entries were picked first, then a sample of the others. Calls come from the whole dose curve; as a rule, active = well fitted activation curve with a large enough effect; inconclusive = small, poorly fitted or top-dose-only effect; inactive = no such curve, though single readings can be large or run the other way. No potency is given beside an inconclusive call; the fits are too rough.

Experiment: qHTS of alpha-syn Inhibitors; note: nearly all actives have a fitted effect of over 65% in size; for growth rescue (activation): % of control where 0% means no effect
Details: Yeast expressing alpha-synuclein, BacTiter-Glo, 24 h; Potency: growth rescue unless noted; growth rescue (activation): at 46.1 µM (top of the series) unless noted
Procedure, shortened: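 Galactose-induced alpha-syn yeast (OD600=0.02, raffinose-pregrown) + pinned cpd, 24 hr, 30 deg C; growth by BacTiter-Glo luminescence. Growth restoration scores as activation.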
Potency is the fitted concentration of half-maximal effect; tags give direction and shape of the fitted curve.

Row | SMILES | Potency | growth rescue (activation)
1 | CC(/C=N/NC(=O)c1cc(C(C)C)[nH]n1)=C\c1ccccc1 | active: 3.98 µM | 
2 | CCOc1ccc(N2CSC(=S)N(c3ccc(OCC)cc3)C2)cc1 | inconclusive [activator, single point] | 
3 | CCOC(=O)c1ccc(NC(=O)CN2C(=O)CN(C(C)=O)C2=S)cc1 | inconclusive [activator, single point] | 
4 | Cc1nc(CSc2nsc(/C=C/N(C)C)c2C#N)cs1 | inconclusive [activator, full curve, poor fit] | 
5 | Cc1nn(Cc2ccc(F)cc2)c(C)c1NC(=O)c1cc(-c2ccc3c(c2)OCO3)on1 | inconclusive [activator, partial curve] | 
6 | CCn1ccc2cc(S(=O)(=O)N3CCCN(C(=O)NCCOC)CC3)ccc21 | inconclusive [activator, single point] | 
7 | Cc1ccc(S(=O)(=O)N(C)CCCN(C)c2nc(-c3cccs3)nc3ccccc23)cc1 | inactive | 
8 | Cc1ccccc1C(=O)Nc1ccc(S(=O)(=O)N2CCN(C)CC2)cc1 | inconclusive [activator, single point] | 
9 | O=C(Nc1ccccc1)N1CCC(c2ccccc2)C1 (centres undefined) | inactive | 
10 | O=S(=O)(NCC(c1cccnc1)N1CCN(c2ccccc2)CC1)c1cc(F)ccc1F (centres undefined) | inconclusive [activator, single point] | 
11 | COC(=O)C1=C(CS(=O)(=O)c2ccc(OC)cc2)NC(=O)NC1c1ccccc1 (centres undefined) | inconclusive [activator, single point] | 
12 | COc1ccc(C(=O)NCc2cccs2)cc1S(=O)(=O)N1CCOCC1 | inactive | 
13 | COc1cccc(/C=N/NC(=O)C(=O)Nc2ccccc2OC(F)(F)C(F)F)c1O | active: 22.4 µM | 
14 | CC1CCN(S(=O)(=O)c2ccc(NC(=O)Cc3ccccc3)cc2)CC1 | inconclusive [activator, single point] | 
15 | CCOC(=O)c1cc(C(C)(C)C)oc1CNC(=O)c1c(C)oc2c1CCCC2 | inactive | 
16 | COc1ccccc1N(CC(=O)NCCN1CCOCC1)S(=O)(=O)c1ccccc1 | inactive | 
17 | Cc1ccc(NC(=O)CSc2nnc(-c3ccncc3)s2)cc1 | inconclusive [activator, single point] | 
18 | COc1ccc(C(=O)/C=C/Nc2ccc(NC(C)=O)cc2)cc1OC | inconclusive [activator, single point] | 
19 | Cc1ccc(C(=O)N/C(=C\c2ccccc2)C(=O)NCc2cccnc2)cc1 | inactive | 
20 | Cc1nc(Nc2ccc(Cl)cc2)c2oc3ccccc3c2n1 | inactive | 
21 | CCn1c(SCC(=O)NC2CC2)nnc1-c1ccncc1 | inconclusive [activator, single point] | 
22 | CCOc1ccc2nc(N=NC3=C(O)CC(C)(C)CC3=O)sc2c1 | inconclusive [activator, partial curve] | 

Row | SMILES | Potency | growth rescue (activation)
23 | O=C(NNc1cc(Cl)cc(Cl)c1)C1CCC1 | inactive | 
24 | COC1=CC(=O)c2nc(Cl)ccc2C1=O | inconclusive [activator, partial curve] | 
25 | C[C@@H](C(=O)NCCc1ccccc1F)N1C(=O)N2CCc3c([nH]c4ccccc34)[C@@]2(C)C1=O | inconclusive [activator, single point] | 
26 | CCOC(=O)[C@@H]1[C@H]2COc3ccc(Br)cc3[C@@H]2N2C(=O)N(c3ccccc3)C(=O)[C@@]12C | inconclusive [activator, single point] | 
27 | Oc1ccc(Nc2nc3ccccc3nc2Nc2ccc(O)cc2)cc1 | inactive | 
28 | COc1ccc(OC)c(NS(=O)(=O)c2ccc3[nH]c4c(c3c2)CCCCC4)c1 | inconclusive [activator, single point] | 
29 | O=C(Nc1cccc(F)c1)Nc1nnc([C@@H]2O[C@H](CO)[C@@H](O)[C@H]2O)s1 | inactive | 
30 | COc1cccc(/C=C/C(=O)OCCN2C(=O)c3ccccc3C2=O)c1 | inconclusive [activator, single point] | 
31 | O=C(Nc1nccs1)C1CCN(S(=O)(=O)c2ccc(F)cc2)CC1 | inactive | 
32 | Cc1ccc(CSC2=NS(=O)(=O)c3ccccc32)cc1 | inconclusive [activator, single point] | 
33 | CCOc1ccc(CN2C(=O)c3ccccc3C2C(=O)NCC2CCCO2)cc1 (centres undefined) | inconclusive [activator, single point] | 
34 | COCC(C)NC(=O)COCc1cc(-c2ccc3c(c2)OCO3)on1 (centres undefined) | inconclusive [activator, single point] | 
35 | CC(=O)c1ccc(N(CC(=O)NC2CCCC2)C(=O)CNC(=O)c2cccs2)cc1 | inactive | 
36 | CCOC(=O)CCNC(=O)N1CCCC(C(=O)c2cccc(OC(C)C)c2)C1 (centres undefined) | inconclusive [activator, full curve, poor fit] | 
37 | C=CCn1c(COc2ccc(Cl)cc2)nnc1SCc1ccc(C#N)cc1 | inconclusive [activator, single point] | 
38 | CCC(=O)c1cc(F)c(N2CCN(S(=O)(=O)c3ccc(C)cc3)CC2)cc1C | inconclusive [activator, single point] | 
39 | CCOC(=O)CSc1ncc(OC)c(Sc2ccc(OC)cc2)n1 | inconclusive [activator, single point] | 
40 | CN(C)c1ccc(C=c2c3cc([N+](=O)[O-])ccc3n3c2cc(-c2ccccc2)[n+]3C)cc1 |  | inconclusive: -61.7% [activator]
41 | COc1cc(/C=C2/C(=O)ON=C2C)cc(Cl)c1O | inactive | 
42 | Cc1cc(C)n(CCOC(=O)c2sc3ccccc3c2Cl)n1 | inconclusive [activator, partial curve] | 
43 | CS(=O)(=O)Nc1ccc(C2=NN(C(=O)c3ccco3)C(c3ccccc3F)C2)cc1 (centres undefined) | inconclusive [activator, single point] | 
44 | O=C(c1cc(-c2ccccc2)n[nH]1)N1CCc2c([nH]c3ccccc23)C1c1ccccn1 (centres undefined) | inconclusive [activator, single point] | 
